From paper PMC4336329 (PLoS ONE, 2015) come the findings set out here.

Screen size: about 310,000 compounds; about 14,000 (4.5%) showed an effect of 50% or more. Effects have a minus sign here. The list shows a part of the results.
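Note: peak tail current of the secondary pulse compared with the same well before compound.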

The target of the assay is human ether-à-go-go-related gene (hERG) potassium channel (human, UniProt Q12809). Briefly: primary screen, population patch clamp on CHO cells stably expressing hERG.
Sequence of human ether-à-go-go-related gene (hERG) potassium channel (Q12809 whole entry, looked up): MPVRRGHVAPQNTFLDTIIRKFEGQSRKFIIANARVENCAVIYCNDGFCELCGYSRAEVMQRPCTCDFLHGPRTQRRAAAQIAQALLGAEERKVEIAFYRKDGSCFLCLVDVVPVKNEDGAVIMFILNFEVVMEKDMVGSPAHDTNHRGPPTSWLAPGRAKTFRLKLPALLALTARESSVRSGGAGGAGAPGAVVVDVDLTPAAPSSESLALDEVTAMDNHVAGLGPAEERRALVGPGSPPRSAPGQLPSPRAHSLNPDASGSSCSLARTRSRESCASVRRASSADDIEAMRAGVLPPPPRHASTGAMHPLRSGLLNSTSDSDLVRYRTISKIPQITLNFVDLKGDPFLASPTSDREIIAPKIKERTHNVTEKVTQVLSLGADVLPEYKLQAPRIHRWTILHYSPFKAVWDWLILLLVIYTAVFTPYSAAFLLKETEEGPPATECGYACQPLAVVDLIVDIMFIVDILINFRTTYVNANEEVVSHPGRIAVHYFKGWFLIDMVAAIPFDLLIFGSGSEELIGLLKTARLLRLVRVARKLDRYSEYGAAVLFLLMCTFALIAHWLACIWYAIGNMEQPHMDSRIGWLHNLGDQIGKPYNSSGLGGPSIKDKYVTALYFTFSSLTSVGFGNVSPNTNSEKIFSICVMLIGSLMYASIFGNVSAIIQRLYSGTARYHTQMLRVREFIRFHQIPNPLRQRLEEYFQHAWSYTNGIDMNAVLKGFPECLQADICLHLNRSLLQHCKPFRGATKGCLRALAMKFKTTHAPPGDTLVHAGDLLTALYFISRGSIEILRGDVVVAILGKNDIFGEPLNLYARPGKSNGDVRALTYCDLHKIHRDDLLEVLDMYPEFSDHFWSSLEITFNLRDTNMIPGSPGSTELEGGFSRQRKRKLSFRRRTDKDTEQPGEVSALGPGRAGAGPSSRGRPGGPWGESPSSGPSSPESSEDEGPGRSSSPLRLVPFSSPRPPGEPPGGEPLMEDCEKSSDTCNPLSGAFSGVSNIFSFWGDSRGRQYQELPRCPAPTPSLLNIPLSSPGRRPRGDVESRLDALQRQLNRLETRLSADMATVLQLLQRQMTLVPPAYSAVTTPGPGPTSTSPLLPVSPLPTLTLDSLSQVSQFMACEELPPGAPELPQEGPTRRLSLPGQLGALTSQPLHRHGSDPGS
Turning to `O=C1Nc2cc(C(=O)NCC3CCCO3)ccc2S/C1=C/c1ccccc1F` (stereo not shown), the “hERG current change (%, negative = inhibition) at 10uM” value is given as -4.84%.

Turning to `CN(C)c1nc(N(C)C)nc(N2CC(CCl)OC2=N)n1` (stereo not shown), the “hERG current change (%, negative = inhibition) at 10uM” value is -28.4%.

For `CN(C)CCN=Cc1c(O)n(CCC2=CCCCC2)c(=O)[nH]c1=O`, the “hERG current change (%, negative = inhibition) at 10uM” value is given as -24.2%.

In the case of `COc1ccc(N=N/C(=C\O)C(=O)c2cccs2)cc1`, the “hERG current change (%, negative = inhibition) at 10uM” value is on record as 24.5%.

For the compound `CC(=O)c1ccc(NC(=O)CSC(=S)N2CCCC2)cc1`, the “hERG current change (%, negative = inhibition) at 10uM” value is reported as -2.57%.

In the case of `COc1ccccc1C1CC(c2ccco2)=NN1c1ccccc1` (stereo not shown), the “hERG current change (%, negative = inhibition) at 10uM” value is -0.421%.

For `CC(=O)Nc1ccc(C2=CC(=O)CC(C)(C)C2)cc1`, the “hERG current change (%, negative = inhibition) at 10uM” value is given as 10.4%.

For `CC1(OC(=O)CCc2ccccc2)C(=O)C=C2C=C(c3ccsc3)OC=C2C1=O` (stereo not shown), the “hERG current change (%, negative = inhibition) at 10uM” value is reported as 2.72%.

For the compound `Cc1ccccc1CS(=O)(=O)Cc1ccc(C(=O)NCc2cccnc2)o1`, the “hERG current change (%, negative = inhibition) at 10uM” value amounted to 11.5%.

Regarding `Cc1cccc(N(Cc2ccccc2)C(=O)c2ccc(F)c(S(=O)(=O)N3CCOCC3)c2)c1`, the “hERG current change (%, negative = inhibition) at 10uM” value is given as -50.5%.

With `O=C(N[C@@H]1CCC(=O)N(CC[C@H](Sc2ccc(Br)cc2)c2ccccc2)CC1)OCc1ccccc1`, the “hERG current change (%, negative = inhibition) at 10uM” value was found to be 0.417%.

Turning to `FC(F)Oc1ccc(NC(=S)NCc2cccnc2)cc1`, the “hERG current change (%, negative = inhibition) at 10uM” value was -2.69%.

Turning to `CCSc1nc2ccccc2n1S(=O)(=O)c1ccccc1`, the “hERG current change (%, negative = inhibition) at 10uM” value is 8.73%.

Turning to `COc1ccccc1C1CCN(C(=O)c2ccccc2)CC1`, the “hERG current change (%, negative = inhibition) at 10uM” value stood at 7.16%.

On to `O=C(Nc1ccccc1)NN(C(=O)CCl)c1ccccc1`, for which the “hERG current change (%, negative = inhibition) at 10uM” value was 6.85%.

For the compound `O=C(CSc1nnc(-c2ccccc2Br)o1)Nc1nncs1`, the “hERG current change (%, negative = inhibition) at 10uM” value is -57.9%.

`COc1ccc(-c2nnc(NC(=O)C3CCCO3)s2)cc1` (stereo not shown): the “hERG current change (%, negative = inhibition) at 10uM” value is recorded as -8.97%.

Regarding `COc1ccc(C(=O)Nc2ccc(Cl)cc2C(=O)NCc2ccco2)cc1`, the “hERG current change (%, negative = inhibition) at 10uM” value is recorded as -0.702%.

For `CCN(CC)CCNC(=O)c1ccc(Sc2ccc(C)cc2)c(NC(C)=O)c1`, the “hERG current change (%, negative = inhibition) at 10uM” value is -58.2%.

As for `CCNc1nc(C#N)nc2c1ncn2-c1cc(F)cc(F)c1`, the “hERG current change (%, negative = inhibition) at 10uM” value worked out at 6.83%.

For `CCC(C)OC(=O)c1cc(C)nc2c(Br)cc(Br)cc12` (stereo not shown), the “hERG current change (%, negative = inhibition) at 10uM” value is 12.7%.

On to `Cc1n[nH]c(C)c1S(=O)(=O)Nc1ccc2c(c1)OCCO2`, for which the “hERG current change (%, negative = inhibition) at 10uM” value is -0.14%.

`CCOC(=O)COc1cc(O)c2c(=O)cc(-c3ccccc3)oc2c1`: the “hERG current change (%, negative = inhibition) at 10uM” value stood at 12%.

Regarding `COC(=O)[C@]1(Cc2ccccc2)N[C@H](c2ccc(-c3cccc(Cl)c3)cc2)[C@@H]2C(=O)N(C)C(=O)[C@@H]21.O=C(O)C(F)(F)F`, the “hERG current change (%, negative = inhibition) at 10uM” value is recorded as -7.57%.

Regarding `COc1ccc(-n2cnc3cc(C(=O)NCC4CCCO4)ccc32)cc1` (stereo not shown), the “hERG current change (%, negative = inhibition) at 10uM” value is reported as -17.9%.

For the compound `O=C(NN1C(=O)c2ccccc2C1=O)c1ccc2c(c1)C(=O)N(CC1CCCO1)C2=O` (stereo not shown), the “hERG current change (%, negative = inhibition) at 10uM” value is on record as -2.01%.

Regarding `Cc1cc(C)c2c(CC(=O)NN(C)C)coc2c1`, the “hERG current change (%, negative = inhibition) at 10uM” value was determined as 13.6%.

Turning to `CCOc1cc(/C=N/NC(=O)c2ccc(CSc3nncn3C)cc2)ccc1OCC(=O)N1CCOCC1`, the “hERG current change (%, negative = inhibition) at 10uM” value is on record as -9.6%.

In the case of `COc1ccc(OCCOC(=O)c2cc(S(=O)(=O)N3CCOCC3)c(Cl)cc2Cl)cc1`, the “hERG current change (%, negative = inhibition) at 10uM” value is on record as -17.7%.

With `CCOC(=O)C1CCN(C2CC(=O)N(c3cccc(Cl)c3)C2=O)CC1` (stereo not shown), the “hERG current change (%, negative = inhibition) at 10uM” value was -12%.

Consider `N#CC1=C2SC=C(c3ccc(Br)cc3)N2CCCC1=O`, for which the “hERG current change (%, negative = inhibition) at 10uM” value is 16.1%.

For `CC1CCN(c2ccc(/C=C(\C#N)c3nn(-c4ccccc4)c(N)c3C#N)cc2[N+](=O)[O-])CC1`, the “hERG current change (%, negative = inhibition) at 10uM” value is given as 12.8%.

As to `COc1ccc(CNC(=O)COC(=O)C2CC2C)cc1OC` (stereo not shown), the “hERG current change (%, negative = inhibition) at 10uM” value was found to be 4.24%.

As to `Cc1ccc(S(=O)(=O)N(C)c2ccc(OCC(=O)OCc3c(C)noc3C)cc2)cc1`, the “hERG current change (%, negative = inhibition) at 10uM” value stood at 0.368%.

As for `CC(C)N(Cc1ccccc1)C(=O)CN1C(=O)COc2ccc(S(=O)(=O)NC3CCCC3)cc21`, the “hERG current change (%, negative = inhibition) at 10uM” value is on record as -36.1%.

Take `Cn1cc([N+](=O)[O-])c(C(=O)Nc2ccc(C(=O)N3CCCCC3)cc2)n1`: the “hERG current change (%, negative = inhibition) at 10uM” value came to 23.3%.

As to `CCOc1ccc(NC(=O)CSc2nc(=O)n(Cc3ccccn3)c3c2CCC3)cc1`, the “hERG current change (%, negative = inhibition) at 10uM” value is on record as -21.2%.

Consider `Cc1cccc(/C(N)=N/OC(=O)CCC2CCCCC2)c1`, for which the “hERG current change (%, negative = inhibition) at 10uM” value was 5.36%.

Consider `CCOC(=O)c1c(NC(=O)COC(=O)c2ccc([N+](=O)[O-])cc2)sc(C(=O)N(C)C)c1C`, for which the “hERG current change (%, negative = inhibition) at 10uM” value is recorded as -8.65%.

Consider `COc1ccccc1CC(NC(C)=O)C(=O)NC1CCN(C(=O)Nc2ccccc2Cl)CC1` (stereo not shown), for which the “hERG current change (%, negative = inhibition) at 10uM” value is -14.7%.

Turning to `N=C1C(=O)OCC1c1ccccc1NC(=O)c1ccccc1` (stereo not shown), the “hERG current change (%, negative = inhibition) at 10uM” value was 8.05%.

For the compound `O=C(CSc1ccc([N+](=O)[O-])cc1)OCC(=O)N1CCCC1=O`, the “hERG current change (%, negative = inhibition) at 10uM” value is given as -11.7%.

Turning to `C=CCc1c(C)nc(SC)nc1Nc1ccccc1`, the “hERG current change (%, negative = inhibition) at 10uM” value was -20.4%.
